From the supplement of paper PMC11417369
This is one part of the list.

Test system: PF3D7_0420300 AP2 domain 1 (GST-tagged)
Experiment: gcPBM binding intensity (ln(normalized median fluorescence intensity)); higher = stronger DNA binding
Procedure, shortened: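 Probes on an Agilent 4 × 180k array were primer-extended, double-stranded and 36 bp long, taken from intergenic genomic regions, with negative controls added. GST-tagged P. falciparum DNA-binding domains from E. coli, about 25 μg on average, were applied to the array for 1 h in 1× PBS containing 1% milk, 0.2 mg/ml BSA, 0.5% salmon testes DNA and 0.03% Triton X-100. Binding intensity, obtained after Alexa488 anti-GST antibody detection and a 488 nm scan, is the highest Masliner-normalised natural-log median intensity across replicate spots of either probe orientation.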

First: AAAAAAATATTAATGTGTACATAATAATAACATATA [XGTACX_site8319]
Second: AAGAGTAAAATATGGTTGCACTAAAAATATATATTT [GTGCAC_site9484]
The “gcPBM binding intensity (ln)” value of the first is higher: 9.34 for the first, 9.22 for the second.

First: TTATAGAGCTTATTCACACATACATATGTATTTATA [CACACA_site5775]
Second: TAAAACATATAAAGGTGTACGCCTTTTTGTATCAAT [XGTACX_site6064]
The “gcPBM binding intensity (ln)” value of the first is higher: 9.3 for the first, 9.24 for the second.

First: ATAATAAAAATATACTGTACATTTGTAAATTCTTTT [XGTACX_site4655]
Second: TATATTTGTTGACACACACACAAAAAAAAAAAAAAA [CACACA_site7211]
The “gcPBM binding intensity (ln)” value of the first is lower: 9.2 for the first, 9.41 for the second.

Going from “GTCTACTACACTAAATGTACAAGAAAAAAGAAAAAA [XGTACX_site4660]” to “AACTTATTTAAATTCACACATATATAAAATACTTAT [CACACA_site4394]”, the “gcPBM binding intensity (ln)” value rises from 9.11 to 9.22.

First: ATAAAGATATGACACACACACATATTATAGATATAT [CACACA_site7434]
Second: GATAACATAATATGTTGTACATAAAAATTTTTATCA [XGTACX_site1969]
The “gcPBM binding intensity (ln)” value of the first is higher: 10.1 for the first, 9.11 for the second.

First: ATCAATTTAATTTATTGTACTTGTTTGTTTTTTTAT [XGTACX_site7544]
Second: ACATATGACTATAATACACACTTGTATTATTAATAT [CACACA_site6951]
The “gcPBM binding intensity (ln)” value of the first is higher: 9.65 for the first, 9.34 for the second.

First: ATTTTAATTACATATACACACAAAGGTTCATAACAA [CACACA_site9008]
Second: ATTATTTTATTATAGTGTACTTTTTTAATCAAAGGA [XGTACX_site8921]
The “gcPBM binding intensity (ln)” value of the first is higher: 9.51 for the first, 9.08 for the second.

Going from “AATTTTATTACTTTTACACACCTATATATTATTCAT [CACACA_site3273]” to “TTTTAAAAAAAATATAAAAAAAGAGGAGGGATGGTA [GTGCAC_negctrl_site35]”, the “gcPBM binding intensity (ln)” value falls from 9.75 to 9.45.

First: TACTCATAATATTGATAATTAAAAAGATAAACTATT [XGTACX_negctrl_site299]
Second: TAATTTAAACAAAAAAGTACAAATTTCTTTTTATTA [XGTACX_site5244]
The “gcPBM binding intensity (ln)” value of the first is higher: 8.98 for the first, 8.88 for the second.

Going from TATGTTTTTACGTGTGTGCACTTTGTAGAGATAAGT to “GCCAAAAGGATATGCACACACACACCCATATATATA [CACACA_site2198]”, the “gcPBM binding intensity (ln)” value rises from 9.48 to 10.2.

First: CATTATCATGTTTTTTGTACTCATAATAAAAAGCAG [XGTACX_site2056]
Second: CAAGGAACCGGACACACACACATAAATGTATTTATA [CACACA_site4574]
The “gcPBM binding intensity (ln)” value of the first is lower: 8.92 for the first, 9.82 for the second.

Compared with “TATATATAGAAACACACACACACCAAAGCGTAGCGC [CACACA_site62]”, “ATTTACAAAAGGAAAGTGCAAACATGTGATTAAACA [CACACA_negctrl_site714]” is lower in “gcPBM binding intensity (ln)” value: 10 for the first, 9.48 for the second.

Compared with “AAAAATGAATTATTTTGTACATATATATATATATAT [XGTACX_site3410]”, “AATAATTGTTAAAGTTGTACTATACGTATATAAGAA [XGTACX_site1432]” is higher in “gcPBM binding intensity (ln)” value: 9.19 for the first, 9.31 for the second.

Going from “ATATTTTTATTTTCTTTACACACCACATAATTTTTT [CACACA_site4060]” to “TCTAACAACATGCGCACACACATGAATATTCATATT [CACACA_site1540]”, the “gcPBM binding intensity (ln)” value falls from 9.82 to 9.62.

Going from “ATTAGATATGTAAACTAAAATTATATTCATGATAAT [TGCATGCA_negctrl_site182]” to “TTTCTTTTACATATTTGTACATATATAAATTTATAT [XGTACX_site1787]”, the “gcPBM binding intensity (ln)” value rises from 9.19 to 9.27.

Compared with “TCACATCTTATATACTGTACATTTCGAATATAAATT [XGTACX_site2508]”, “TTCTTTAATACTTATTGTACAATATAATAATCACAA [XGTACX_site6364]” is lower in “gcPBM binding intensity (ln)” value: 9.35 for the first, 9.12 for the second.

Going from “TACTATATAAGTAAGGCATGCATGCCGATTTTTTTA [TGCATGCA_site100]” to “AAAAAAAAAAAAATATGTACTTATTTTTATGTTAAA [XGTACX_site8802]”, the “gcPBM binding intensity (ln)” value falls from 9.09 to 8.84.

First: TACTTAAAATATTTAACAAATAAATAAATAAATAAA [XGTACX_negctrl_site523]
Second: TGAAACCGTTACATGTGTACATATGTTACACATAAT [XGTACX_site7250]
The “gcPBM binding intensity (ln)” value of the first is lower: 8.97 for the first, 9.23 for the second.

First: TATAATATATTATATACACACATTATGAAATCCACA [CACACA_site1330]
Second: AACACGCGCAGACACACACACACACCCACATATATA [CACACA_site2205]
The “gcPBM binding intensity (ln)” value of the first is lower: 9.6 for the first, 10.2 for the second.

Compared with “TATATGAACTTATATACACACCATTTTTGTAAATCT [CACACA_site4547]”, “ATAAATATATTTTATAGTACATAAATATCAAAAAAA [XGTACX_site2334]” is lower in “gcPBM binding intensity (ln)” value: 9.39 for the first, 9.2 for the second.

Going from ATTTTGATGCATGGGTTGCACTAACTTTTGCCCAGA to “AAACAATACTGATATTGTACATAATAAAAAAAAATA [XGTACX_site3330]”, the “gcPBM binding intensity (ln)” value rises from 9.13 to 9.21.

Compared with “CATACATACCTATATACACACATATAAAATAATATA [CACACA_site7290]”, “AGTATACAGATATATACACACATATTTATATTTATA [CACACA_site6394]” is lower in “gcPBM binding intensity (ln)” value: 9.75 for the first, 9.54 for the second.

First: TCTATATGTTGATTCACACATAAAGAATAAATAAAA [CACACA_site6017]
Second: TGTTATTATTTGTACACACACATATATATCCTTGTT [CACACA_site3616]
The “gcPBM binding intensity (ln)” value of the first is lower: 9.02 for the first, 10.1 for the second.

Compared with “GGCAACATTTGAAACACACACACATACAAACAAACA [CACACA_site3307]”, “TAGTCGTTTTTTTAATGTACTCACGCATAATATAAT [XGTACX_site6499]” is lower in “gcPBM binding intensity (ln)” value: 9.97 for the first, 9.19 for the second.

Going from “TTAATTATAAGAAAAAGTACTCATTACATTATAGAA [XGTACX_site678]” to “ATATAAATATTCCACACACACACAAAAAAAAAAAAA [CACACA_site7678]”, the “gcPBM binding intensity (ln)” value rises from 8.81 to 10.

Compared with “CATATACATCCACATACACACATACACCCATACACA [CACACA_site5038]”, “TGAAAAGTAAAATACACACACATAATATAATTTATA [CACACA_site1989]” is higher in “gcPBM binding intensity (ln)” value: 9.74 for the first, 9.99 for the second.

Going from “AAAGGATATAGACACACACACACATATATATATATA [CACACA_site2200]” to “ATCATTTTTAAAGGAACACACAAAAAAAATTAGAAT [CACACA_site1370]”, the “gcPBM binding intensity (ln)” value falls from 10 to 9.58.

Compared with “GTTCAAAATATGAACACACACATATAGATTTATATA [CACACA_site7054]”, “ATTATTTTTTTTGTTACACACATGACTTATTTTTAT [CACACA_site3228]” is higher in “gcPBM binding intensity (ln)” value: 9.5 for the first, 9.82 for the second.

With “TATTTTTATATATGACGTACTCTACAATTATTAATG [XGTACX_site5818]” the “gcPBM binding intensity (ln)” value was 9.2.
